Experimental data published in PubChem BioAssay AID2147 (National Center for Advancing Translational Sciences (NCATS), 2009).
Several values for one entry are separate records, joined by “and”; a condition that tells them apart may be missing. Identical values can stand only once. Screen size: about 230,000 compounds; about 3,600 (1.6%) were called active. Inconclusive results, whose numbers are uncertain, are shown with a selection of clear calls. Calls come from the whole dose curve; as a rule, active = well fitted inhibition curve with a large enough effect (not every such curve was filed as active); inconclusive = small, poorly fitted or top-dose-only effect, or another doubt; inactive = no such curve, though single readings can be large or run the other way. Where the call is inconclusive, the potency comes from a doubtful curve fit.

Biological target: Lysine-specific demethylase 4E (Homo sapiens) (UniProt B2RXH2)
Sequence of UniProt B2RXH2 (B2RXH2 whole entry, looked up, the tested form may be a part): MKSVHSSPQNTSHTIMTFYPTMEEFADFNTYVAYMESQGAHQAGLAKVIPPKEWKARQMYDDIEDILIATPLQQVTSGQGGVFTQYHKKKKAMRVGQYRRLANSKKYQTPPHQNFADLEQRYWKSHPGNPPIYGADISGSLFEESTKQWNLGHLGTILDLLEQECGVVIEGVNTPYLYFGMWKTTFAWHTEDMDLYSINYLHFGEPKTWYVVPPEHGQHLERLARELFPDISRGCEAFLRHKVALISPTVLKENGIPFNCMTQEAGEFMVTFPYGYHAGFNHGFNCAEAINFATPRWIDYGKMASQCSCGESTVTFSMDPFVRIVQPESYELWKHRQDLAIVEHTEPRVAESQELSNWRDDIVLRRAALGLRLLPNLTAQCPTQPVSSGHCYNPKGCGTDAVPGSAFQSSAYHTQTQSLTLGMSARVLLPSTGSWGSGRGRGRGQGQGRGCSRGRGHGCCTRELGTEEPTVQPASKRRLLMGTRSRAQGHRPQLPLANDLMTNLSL
Test: qHTS Assay for Inhibitors of Human Jumonji Domain Containing 2E (JMJD2E)
Details: JMJD2E catalytic domain, FDH-coupled NADH fluorescence (FDH is formaldehyde dehydrogenase); series mostly up to 57.1 µM
Note: nearly all actives have a fitted effect of over 50% in size.
Potency is the fitted concentration of half-maximal effect; tags give direction and shape of the fitted curve.

Compound	Potency
COc1ccc(C(=O)NNc2ccccc2)cc1	inconclusive: 35.5 µM [inhibitor, single point]
Cc1cc(C)nc(N(C#N)CN2C(=O)c3ccccc3C2=O)n1	inactive
C1=CC2CC1CC2CN1CCN(c2ccccc2)CC1 (stereo not given)	inconclusive: 31.6 µM [inhibitor, single point]
O=C(NCc1nc2ccccc2[nH]1)C1=C[C@H](c2ccc3c(c2)OCO3)C[C@H](OCCCCO)O1	inconclusive: 35.5 µM [inhibitor, single point]
CCOc1ccc(CC(=O)Nc2ccc(-c3ccc4nnc(C)n4n3)cc2)cc1	inconclusive: 31.6 µM [inhibitor, partial curve]
COCCNc1nnc(SCC(=O)Nc2sc3c(c2C(=O)c2ccccc2)CCCC3)s1	inactive
CCOc1cc(C2NN=C(c3ccc(C)cc3)S2)ccc1O (stereo not given)	inconclusive: 22.4 µM [inhibitor, partial curve]
COc1ccc(OC)c(Cc2nnc(CCC(=O)NC3C4CC5CC(C4)CC3C5)o2)c1 (stereo not given)	inactive
CCOc1ccc(C(=O)N/N=C/c2ccccc2[N+](=O)[O-])cc1	inactive
CCS(=O)(=O)N1Cc2ccccc2CC1C(=O)Nc1nnc(SCc2ccc(C#N)cc2)s1 (stereo not given)	inconclusive: 39.8 µM [inhibitor, single point]
Nc1c(-c2ccccc2)n[nH]c1-c1ccccc1	inconclusive: 14.1 µM [inhibitor, partial curve]
COc1cc2nc(N(C)CCCNC(=O)[C@@H]3CCCO3)nc(N)c2cc1OC	inconclusive: 2.24 µM [inhibitor, full curve]
O=C(CN1CCN(S(=O)(=O)c2ccc(Cl)cc2)CC1)Nc1ccc2c(c1)OCCO2	inactive
NC(=O)COC(=O)c1cccnc1Nc1ccccc1F	inactive
CCCCOCCCn1c(-c2ccco2)nc2nc3ccccc3nc21	inconclusive: 25.1 µM [inhibitor, partial curve]
Cc1[nH]n(-c2ccccc2)c(=O)c1C(C[N+](=O)[O-])c1ccc(F)cc1 (stereo not given)	inconclusive: 3.55 µM [inhibitor, full curve]
CCCS(=O)(=O)N1CCN(Cc2ccco2)CC1	inconclusive: 25.1 µM [inhibitor, single point]
COc1cc(C(CC(=O)N2CCN(c3ccccc3)CC2)c2c(OC)cc(OC)c3ccc(=O)oc23)cc(OC)c1OC (stereo not given)	inconclusive: 39.8 µM [inhibitor, single point]
CC(C)(C)c1nc2cc(Cl)c([N+](=O)[O-])cc2o1	inactive
Cc1nc2ccccc2nc1OCC(=O)NCC(F)(F)F	inconclusive: 28.2 µM [inhibitor, partial curve]
O=C(NCC1CCCO1)c1nn2cccnc2c1Cl (stereo not given)	inactive
COc1ccc(C(C)=O)cc1CSc1ncccn1	inactive
O=C(Cc1cccs1)NCc1cccs1	inactive

Compound	Potency
O=C(CSc1nnc(COc2cccc3cccnc23)o1)N1CCCC1	inconclusive: 28.2 µM [inhibitor, partial curve]
Cc1cc(NC(=O)CSc2nnc(-c3cccs3)n2N)no1	inconclusive: 0.794 µM [inhibitor, partial curve, poor fit]
COc1ccc(N2CC(C)Cn3c2nc2c3c(=O)n(Cc3ccccc3)c(=O)n2C)c(OC)c1 (stereo not given)	inconclusive: 39.8 µM [inhibitor, single point]
COc1cccc(CN=CC2=C(O)CC(C)(C)CC2=O)c1OC	inactive
CCCCN(CCCC)S(=O)(=O)c1ccc(NC(=O)c2cccs2)cc1	inactive
Cc1ccccc1CNC(=O)c1ccc(CSCc2ccccc2)cc1	inconclusive: 39.8 µM [inhibitor, single point]
N#Cc1ccc(-c2ccc(OCC(O)CN3CCOCC3)cc2)cc1 (stereo not given)	inconclusive: 28.2 µM [inhibitor, partial curve]
COc1cccc(C2CC(c3cccc(NS(C)(=O)=O)c3)=NN2C(=O)c2ccccc2)c1OC (stereo not given)	inconclusive: 35.5 µM [inhibitor, single point]
CCc1cc(=O)oc2c(CN3CCCC3)c(O)c(Cl)cc12	inconclusive: 0.708 µM [inhibitor, full curve]
O=C(O)CSc1nnc(Cn2nnc3ccccc32)n1CCc1ccccc1	inactive
CC1=C(C(=O)N(C)C)C(c2cccc(Cl)c2)NC(=O)N1 (stereo not given)	inactive
Fc1cccc(NC(=S)NNc2c3ccccc3nc3ccccc23)c1	inconclusive: 14.1 µM [inhibitor, partial curve]
Cc1nc2nc(-c3ccccc3)[nH]n2c(=O)c1Cc1ccccc1	inconclusive: 22.4 µM [inhibitor, partial curve]
O=C(O)CCc1ccc(-c2cccs2)o1	inconclusive: 25.1 µM [inhibitor, single point]
Cc1[nH]n(-c2ccccc2)c(=O)c1C=Nc1cccc2cccnc12	inconclusive: 39.8 µM [inhibitor, single point]
COC(=O)[C@H](Cc1ccccc1)NC(=O)O[C@H]1C(=O)c2cc(OC)ccc2O[C@@H]1c1ccc(OC)c(Br)c1	inactive and inconclusive: 28.2 µM [inhibitor, single point]
CN(c1ccc(O)cc1)c1nc(-c2cccs2)cs1	inactive
Cc1cccc(S(=O)(=O)C(C#N)c2nc3ccccc3nc2N2CCCC2)c1 (stereo not given)	inconclusive: 28.2 µM [inhibitor, partial curve]
Cc1ccc(-n2c(N)c(C(=O)N3CCOCC3)sc2=S)c(C)c1	inconclusive: 39.8 µM [inhibitor, single point]
CCOC(=O)c1oc2cccc(OCC(O)CNC(C)C)c2c1C (stereo not given)	inconclusive: 17.8 µM [inhibitor, partial curve]
O=C(c1cnn(C(=O)c2cccc(S(=O)(=O)N3CCOCC3)c2)c1)c1cc(Cl)cc(Cl)c1O	inconclusive: 39.8 µM [inhibitor, partial curve]
COc1ccc(-c2coc3c(CN4CCOCC4)c(O)ccc3c2=O)cc1	inconclusive: 28.2 µM [inhibitor, partial curve]
